± gives the uncertainty stated by the source. Over roughly 9,900 compounds, “viability index relative to DMSO control” has its median near 1; the lowest 2% begin near 0.85. This is one part of the list.
Test system: Plasmodium falciparum NF54 stage V gametocytes
Experiment: viability index relative to DMSO control (fraction); higher = less gametocyte killing
Details: 2.5 µM, incubation time: 72 h
In short: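 P. falciparum NF54 stage V gametocytes (serum-free medium, 0.75% gametocytemia, 1.25% hematocrit) were exposed to compound at 2.5 µM for 72 hr at 37°C under low oxygen, then stained with MitoTracker Red CMXRos and saponin for one to two hours. Red particles of 20–70 µm2 in one field per well were counted, and the viability index is that count scaled to the plate mean of solvent-only wells.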

[1] = library set: Broad Institute DOS

| Compound | viability index [1] | viability index (library set: Broad Institute Blood Stage) |
| --- | --- | --- |
| C[C@@H]1CN([C@@H](C)CO)C(=O)c2ccccc2-c2ccccc2CO[C@H]1CN(C)C(=O)c1cc(Cl)cc(Cl)c1 | 0.937 ± 0.19 | – |
| CCC(=O)N1[C@H](CO)[C@@H](c2ccc(-c3cccc(OC)c3)cc2)C12CN(C(C)=O)C2 | 1.12 ± 0.012 | – |
| C[C@@H]1CN([C@H](C)CO)C(=O)c2ccccc2-c2ccccc2CO[C@@H]1CN(C)C(=O)Nc1ccnc(N2CCOCC2)c1 | 0.975 ± 0.044 | – |
| Cc1ccc(S(=O)(=O)Nc2ccc3c(c2)C(=O)N([C@H](C)CO)C[C@H](C)[C@@H](CN(C)S(=O)(=O)c2cccs2)OCCCC[C@@H](C)O3)cc1 | 1.17 ± 0.045 | – |
| CCCNC(=O)N(C)C[C@H]1Oc2cc(C#C[C@@H](C)O)ccc2S(=O)(=O)N([C@@H](C)CO)C[C@@H]1C | 0.987 ± 0.014 | – |
| CCCC(=O)N1C[C@H]2[C@@H](c3ccccc31)[C@@H](CO)N2C(=O)Nc1ccc(F)cc1 | 0.983 ± 0.045 | – |
| CN1C(=O)c2cc(NC(=O)c3cnccn3)ccc2OC[C@H]2O[C@@H](CC(=O)N[C@@H]3CCN(Cc4ccccc4)C3)CC[C@@H]21 | 1.08 ± 0.044 | – |
| COCC#Cc1ccc([C@H]2[C@@H](CO)N3C(=O)CN(C(=O)C4CCCCC4)C[C@H]23)cc1 | 1.03 ± 0.011 | – |
| C[C@H](NC(=O)C[C@H]1CC[C@@H]2[C@@H](COc3ccc(NS(=O)(=O)c4ccc(Cl)cc4)cc3C(=O)N2C)O1)c1ccccc1 | 0.97 ± 0.023 | – |
| COc1ccc2c3c([C@@H](CO)N(C[C@]33CCN(Cc4cccc(F)c4)CC3)C(=O)C3CC3)n(C)c2c1 | 0.997 ± 0.1 | – |
| CC(C)CC#Cc1ccc([C@@H]2[C@@H](CO)N3C(=O)CN(C(=O)c4ccccn4)C[C@H]23)cc1 | 1.09 ± 0.048 | – |
| CCC(=O)N1C[C@@]2(C1)CN(Cc1cccc(Cl)c1)[C@@H](CO)c1[nH]c3cc(OC)ccc3c21 | 1.01 ± 0.063 | – |
| CCC(=O)N1CC[C@H]2[C@@H]1c1cc(-c3ccc(C#N)cc3)ccc1N(C)[C@H]2CO | 1.13 ± 0.044 | – |
| CO[C@H](CN(C)Cc1cc(F)ccc1F)[C@H](C)CN(C(=O)Nc1ccc(C(F)(F)F)cc1)[C@H](C)CO | 1.12 ± 0.046 | – |
| C[C@@H]1CN([C@@H](C)CO)C(=O)Cc2cc(NC(=O)CCCCCC(=O)Nc3ccccc3N)ccc2O[C@@H]1CN(C)S(=O)(=O)c1cccs1 | 0.9793 ± 0.0018 | – |
| CCS(=O)(=O)N1C[C@@]2(C1)CN([C@@H](CO)c1c2c2ccc(OC)cc2n1C)C(=O)c1ccc(F)cc1 | 0.92 ± 0.1 | – |
| COc1ccc(-c2ccc([C@@H]3[C@@H](CO)N(C(=O)NC(C)C)[C@H]3C#N)cc2)cc1 | 1.05 ± 0.08 | – |
| O=C(c1ccc2c(c1)OCO2)N1C[C@H]2[C@@H](c3ccccc31)[C@H](CO)N2C(=O)CC1CC1 | 1 ± 0.081 | – |
| CCS(=O)(=O)N(C)C[C@@H]1N[C@H](CO)[C@@H]1c1ccc(-c2ccccc2F)cc1 | 1.05 ± 0.031 | – |
| COc1ccc(CNC(=O)C[C@@H]2C=C[C@@H](NC(=O)c3cccc(F)c3)[C@@H](CO)O2)cc1 | 1 ± 0.096 | – |
| CCS(=O)(=O)NCC[C@@H]1CC[C@@H](NC(=O)Nc2cc(Cl)cc(Cl)c2)[C@@H](CO)O1 | 1.11 ± 0.15 | – |
| CO[C@H]1CN(C)C(=O)c2ccc(NC(=O)NC(C)C)cc2OC[C@@H](C)N(Cc2ccc(-c3ccccn3)cc2)C[C@@H]1C | 1.078 ± 0.0022 | – |
| C[C@H](CO)N1C[C@H](C)[C@H](CN(C)Cc2ccc(C(=O)Nc3ccccc3N)cc2)Oc2ccc(NC(=O)Cn3cnnn3)cc2C1=O | 1.02 ± 0.014 | – |
| CC(=O)N(Cc1cccc(F)c1)C[C@@H]1[C@@H](c2ccccc2)[C@@H](CO)N1C(C)=O | 0.9309 ± 0.0049 | – |

| Compound | viability index [1] | viability index (library set: Broad Institute Blood Stage) |
| --- | --- | --- |
| CC[C@H]1C/C=C\C[C@H](CC)NC(=O)[C@@H](C)CC(=O)N1 | 1 ± 0.013 | – |
| C[C@H]1CN([C@@H](C)CO)C(=O)c2c(c3ccccc3n2C)-c2ccccc2CO[C@H]1CN(C)S(=O)(=O)c1ccc(Cl)cc1 | – | 0.738 ± 0.023 |
| CO[C@H]1CN(C)C(=O)c2cc(NS(=O)(=O)c3cn(C)cn3)ccc2OC[C@H](C)NC[C@@H]1C | 0.955 ± 0.082 | – |
| O=C(C[C@H]1CC[C@@H]2[C@H](COC[C@H](O)CN2Cc2ccc(F)cc2)O1)NCCc1ccccc1 | 1.04 ± 0.039 | – |
| CCS(=O)(=O)Nc1ccc2c(c1)C(=O)N(C)[C@@H]1CC[C@@H](CC(=O)NC3CCCCC3)O[C@H]1CO2 | 0.978 ± 0.046 | – |
| CN1c2ccc(Br)cc2[C@@H]2[C@@H](CCN2C(=O)Cc2ccccc2)[C@H]1CO | 1.12 ± 0.026 | – |
| O=C(C[C@@H]1CC[C@@H]2NC[C@H](O)COC[C@H]2O1)NC1Cc2ccccc2C1 | 1.02 ± 0.051 | – |
| COc1ccc2c3c([C@H](CO)N(C[C@]33CCN(CC3)C(=O)c3ccncc3)C(=O)C3CCOCC3)n(C)c2c1 | 1.041 ± 0.0015 | – |
| C[C@H](CO)N1C[C@H](C)[C@@H](CN(C)Cc2ccncc2)Oc2ccc(NS(=O)(=O)c3ccc(F)cc3)cc2CC1=O | 0.96438 ± 0.00037 | – |
| C[C@H]1CN([C@@H](C)CO)C(=O)c2ccccc2-c2ccccc2CO[C@@H]1CN(C)S(=O)(=O)c1cn(C)cn1 | 1.04 ± 0.048 | – |
| COc1cccc(CN2C[C@@]3(C2)CN([C@H](CO)c2[nH]c4cc(OC)ccc4c32)C(=O)C2CC2)c1 | 1.06 ± 0.16 | – |
| O=C(C[C@H]1CC[C@H]2[C@@H](COC[C@H](O)CN2CC2CCOCC2)O1)NCC1CCCCC1 | 1.06 ± 0.075 | – |
| O=C(Nc1cc(F)ccc1F)N[C@H]1CC[C@@H](CCn2cc(C3CCCCC3)nn2)O[C@H]1CO | 1.04 ± 0.074 | – |
| CN(C)CC(=O)N1[C@H](CO)[C@@H](c2ccc(-c3cccc(C(=O)N(C)C)c3)cc2)[C@@H]1C#N | 1.1 ± 0.012 | – |
| CCC(=O)N1[C@H](CO)[C@H](c2ccccc2)[C@H]1CN(CC)C(=O)c1cccc(F)c1 | 1.07 ± 0.035 | – |
| COc1ccccc1CNC(=O)C[C@@H]1CC[C@H]2[C@@H](COC[C@@H](O)CN2Cc2ccc3c(c2)OCO3)O1 | 1.085 ± 0.0067 | – |
| Cc1noc(C)c1NC(=O)N[C@@H]1C=C[C@@H](CC(=O)Nc2ccc(-c3ccccc3)cc2)O[C@@H]1CO | 0.979 ± 0.1 | – |
| CO[C@H]1CN(C)C(=O)c2ccc(NC(=O)C3CC3)cc2OC[C@H](C)N(C(C)=O)C[C@@H]1C | 1.11 ± 0.035 | – |
| C[C@@H]1CN([C@H](C)CO)C(=O)c2ccccc2-c2ccccc2CO[C@@H]1CN(C)Cc1ccccc1C(F)(F)F | 0.806 ± 0.11 | – |
| COc1cccc(CNC(=O)[C@H]2[C@H](CO)[C@H]3Cn4c(ccc(-c5cncnc5)c4=O)[C@H]3N2C)c1 | 0.9922 ± 0.0064 | – |
| C[C@@H]1CN([C@H](C)CO)C(=O)Cc2cc(N(C)C)ccc2O[C@@H]1CN(C)Cc1ccc(-c2ccccc2)cc1 | 0.98 ± 0.019 | – |
| CO[C@@H](CN(C)Cc1ccc2c(c1)OCO2)[C@H](C)CN(C(=O)Nc1ccc(F)cc1)[C@@H](C)CO | 1.03 ± 0.042 | – |
| CO[C@@H](CN(C)S(=O)(=O)c1cccc(Cl)c1)[C@H](C)CN(C(=O)Nc1ccccc1F)[C@H](C)CO | 1.05 ± 0.049 | – |
| C[C@@H]1CN([C@H](C)CO)C(=O)c2cc(NS(=O)(=O)c3ccc(Cl)cc3)ccc2O[C@@H](C)CCCCO[C@@H]1CN(C)Cc1ccncc1 | 1.01 ± 0.031 | – |

| Compound | viability index [1] | viability index (library set: Broad Institute Blood Stage) |
| --- | --- | --- |
| C[C@H](CO)N1C[C@H](C)[C@@H](CN(C)S(=O)(=O)c2ccc(F)cc2)OCCCC[C@H](C)Oc2ccc(N(C)C)cc2C1=O | 1.04 ± 0.11 | – |
| COc1ccccc1S(=O)(=O)N(C)C[C@@H]1OCc2ccccc2-c2ccccc2C(=O)N([C@@H](C)CO)C[C@@H]1C | 1.01 ± 0.082 | – |
| C[C@@H]1CCCCO[C@H](CN(C)CC2CCCCC2)[C@H](C)CN([C@@H](C)CO)C(=O)c2cc(NS(C)(=O)=O)ccc2O1 | 1.11 ± 0.12 | – |
| CN1c2ccc(Br)cc2[C@H]2[C@H](CCN2C(=O)Nc2cccc(F)c2)[C@H]1CO | 1.108 ± 0.0082 | – |
| O=C(CC1CC1)N1CC[C@@H]2[C@@H](CO)Nc3ccc(-c4ccc(F)cc4)cc3[C@@H]21 | 1.09 ± 0.05 | – |
| COc1cccc(NC(=O)C[C@@H]2CC[C@@H]3[C@@H](COc4ccc(NC(=O)C5CC5)cc4C(=O)N3C)O2)c1 | 1.17 ± 0.13 | – |
| CN(C[C@H]1[C@H](c2ccccc2)[C@@H](CO)N1CC1CC1)C(=O)c1ccc(F)cc1 | 0.953 ± 0.029 | – |
| C[C@H](NC(=O)[C@@H]1[C@@H](CO)[C@@H]2Cn3c(ccc(-c4ccccc4)c3=O)[C@@H]2N1C)c1ccccc1 | 1.07 ± 0.031 | – |
| CC(C)[C@@H]1COCc2cnnn2CCC[C@@H](C)C(=O)N1 | 1.07 ± 0.071 | – |
| CO[C@@H](CN(C)C(=O)C1CCOCC1)[C@@H](C)CN([C@H](C)CO)S(=O)(=O)c1ccccc1 | 1.072 ± 0.0076 | – |
| COc1ccc(CN(C)C[C@H]2OCCCC[C@H](C)Oc3ccc(NC(=O)C4CCCCC4)cc3C(=O)N([C@@H](C)CO)C[C@H]2C)cc1 | 1.1 ± 0.013 | – |
| N#Cc1cccc(-c2ccc([C@H]3[C@@H]4CN(Cc5ccccc5)C[C@H]3N4)cc2)c1 | 1.1 ± 0.12 | – |
| CCC(=O)N1Cc2cc(C(=O)N3CCCCC3)nc(-c3cccc(-c4cccnc4)c3)c2[C@H]1CCO | 1.03 ± 0.011 | – |
| CC(C)C#Cc1ccc([C@H]2[C@@H](C#N)N(C(=O)c3cccc(F)c3)[C@@H]2CO)cc1 | 1.21 ± 0.075 | – |
| N#Cc1ccc(-c2ccc([C@@H]3[C@H]4CNC[C@@H]3N4Cc3ccc4c(c3)OCO4)cc2)cc1 | 0.924 ± 0.017 | – |
| CCCNC(=O)N1[C@H](C#N)[C@H](c2ccccc2-c2cccc(C)c2)[C@@H]1CO | 0.999 ± 0.073 | – |
| O=C(C[C@@H]1C=C[C@H](NC(=O)Nc2ccc3c(c2)OCO3)[C@@H](CO)O1)NCCCN1CCOCC1 | 1.03 ± 0.07 | – |
| COc1ccc(CN2CC3(C2)[C@H](c2ccccc2)[C@@H](CO)N3CC2CCCC2)cc1 | 0.923 ± 0.083 | – |
| COCC(=O)N1C[C@@]2(C1)CN([C@@H](CO)c1c2c2ccc(OC)cc2n1C)S(C)(=O)=O | 1.01 ± 0.085 | – |
| O=C(c1ccccc1F)N1CC(=O)N2[C@@H](CO)[C@@H](c3ccc(C#Cc4ccccc4)cc3)[C@@H]2C1 | 1.02 ± 0.092 | – |
| O=C(Nc1cc(F)ccc1F)N[C@@H]1CC[C@@H](CCn2cc(C3CCCCC3)nn2)O[C@@H]1CO | 1.03 ± 0.021 | – |
| Cc1cc(C(=O)Nc2ccc3c(c2)C(=O)N(C)[C@H]2CC[C@H](CC(=O)NCc4ccc(-c5ccccc5)cc4)O[C@H]2CO3)no1 | 1.1 ± 0.1 | – |

Source: the supplement of paper PMC4723716
